Measured values reported in the supplement of paper PMC3334620.
Whole data set: some 33,000 sequences, median “E-score (-0.5 to 0.5)” near -0.054, cut for the highest 2% near 0.39. The list shows a part of the results.

What follows are sequences tested against Ylr278c (UniProt Q05854) (assay: PBM E-score (8-mer binding enrichment) (E-score (-0.5 to 0.5)); higher = stronger / more preferred TF binding; most listed sequences are background and not binding sites). Details: protein concentration: 200 nM; construct: GST-DNA-binding domain.
Outline: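 GST-tagged yeast TFs (full-length or DNA-binding domain) were made by PURExpress in vitro transcription/translation and applied at about 100-200 nM to universal all-10-mer Agilent arrays. The arrays were made double-stranded by primer extension, on fresh or once-stripped slides. Bound protein was detected with fluorescent anti-GST, and scans were normalised with masliner. Each ungapped eight-base word, pooled with its reverse complement, received an E-score (modified Wilcoxon-Mann-Whitney statistic) from the Universal PBM Analysis Suite.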

Sequence	PBM E-score
GGCGAGAC	-0.224
ATTTTGTC	0.099
CAGTCGAA	-0.212
AAGTTATT	-0.0271
ACGCTAAA	-0.18
GGCCATCA	0.00451
ACCTTCAT	0.0238
GATCTGAA	-0.0719
ATAAAGTG	-0.0736
CCTAGGAA	0.00058
GATGTCTA	-0.163
AATGGAAT	0.0961
CCTTTACG	-0.0818
CTGAAGCC	-0.0673
CTGACTCA	-0.305
CAGTACGC	-0.00189
CAATGTGG	-0.166
ACTAGATA	-0.129
ATAGTTTC	-0.0564
AAACACGC	0.0902
CAAGTAGG	-0.189
GACCTCTA	-0.231
GACGATCA	-0.132
ACGTCGCG	-0.0651
GTCATAAA	-0.103

Sequence	PBM E-score
GCTTTGGA	0.141
AACATCGC	0.0269
CAACTCCA	0.0206
AATTGGAT	-0.126
ATTAAAAT	0.00827
CTTATTCA	-0.178
TAATAAGA	-0.0688
CGGGACTC	0.341
ATCCCTGG	-0.236
AGAAATAT	0.0411
CGTCGAGA	-0.158
AATAACTA	-0.0897
GACGTGGC	-0.0942
CGGAGTAA	0.468
CCATTAAG	-0.185
AAAACATT	-0.249
GCAATGAC	-0.246
CGGTAGTC	0.195
TCCCACAA	-0.0305
ATGCAAGA	-0.214
GAAGTCTA	-0.143
ACCAGGCG	-0.0563
AGGATAAT	-0.138
AACATCTT	-0.026
AGCATCGA	-0.0845

Sequence	PBM E-score
TGTGCGAA	-0.173
AGTACCCA	-0.139
CTGCTCCC	-0.111
TCCTTAAA	-0.322
AAAAGCTA	-0.126
ATAAAGTA	-0.0961
CACCCTCA	-0.212
GGGTTTTA	0.237
ACGCCCGG	0.305
CGGGGCTA	0.178
AAGTCTTG	-0.25
CTTTACTC	0.00542
CATACATG	-0.233
CTCCAAGC	-0.15
GGGCGCGA	0.186
AGAGGAAG	-0.211
CAGCCTCC	-0.0182
ATGTTACG	-0.168
ACTCGCAA	-0.172
CCCTCAGC	-0.0523
AAATCACG	0.11
CCCGCGGC	0.336
GGCCTCAA	-0.0423
AGCCCCGG	0.378
GATCAACA	-0.246

Sequence	PBM E-score
CGTGAGAC	-0.0417
AAACCTGG	-0.0736
CACGAGCA	-0.168
TCCGCAGA	0.317
ATCCGCGC	0.251
AATCTCGG	0.308
AACGGCAT	0.245
ACAACAGT	0.0333
CAGATGAC	-0.167
ACTCAAAC	-0.184
GACTTACC	0.171
CTCAGCGC	0.00585
GGGGGGTA	-0.057
AACAATTG	-0.197
GGCCCCCA	-0.135
CTACTAGC	0.0383
ACGACCCC	0.0131
GATGCTGA	-0.264
ACGGAAAG	0.285
GACGCTAC	-0.0529
CTTACCAA	-0.152
CTATACCC	0.0559
TGTCACAA	-0.0454
ACTAACCT	-0.075
CGGACGAG	0.227

Sequence	PBM E-score
AATGAATA	-0.0622
GTACCGCA	0.164
CCAACACG	-0.138
GCCTGTCC	-0.132
TCTTCACA	-0.145
CGCACAAC	0.0103
ATCTCCGA	0.478
ATGAAGCC	0.0954
GTGATATA	-0.253
CACCTAGC	-0.1
ACTGAGTC	0.0143
GGCCGCGA	0.086
AGGAATTG	-0.0579
CCGAGTAG	0.197
ATCCCGGG	0.392
CAGCTGAA	-0.236
ACGCGTCA	-0.313
GTCTGACA	-0.042
TAACATCA	-0.308
ACCCAGGG	-0.13
GAATCCGC	0.259
TAGGACGA	-0.0757
CCGACCGC	0.195
AGACCGTG	-0.032
ACGTGAGC	-0.208

Sequence	PBM E-score
AGCTCGCC	0.0362
GCATCACA	-0.209
GTCTTGCA	-0.0978
AATCTACT	-0.0131
GCATCGAA	-0.168
GCCTACAC	-0.186
CTGCGGGA	0.111
ATTCGTGG	-0.222
TGCGTGAA	0.101
CGAAACAG	-0.0457
CAGCTGTC	-0.166
AGGTGCAT	-0.123
GCTACCAC	-0.297
AACACCGA	0.318
AAGGGGTA	-0.156
AACTCTCC	0.169
AGACATGC	-0.196
CGCAGATC	0.0117
CGACTACG	0.115
CTGATACA	-0.163
AGCCACAC	-0.137
AAACTCAT	0.0904
CGGCGCCG	0.461
TAAACTCA	-0.0968
CGAGTCAA	-0.0521

Sequence	PBM E-score
ATGCATGA	0.00566
CTAGACTC	-0.192
AAGCCTAA	-0.0334
ATACCGTC	0.153
AAGTCTCC	-0.0296
CATGAGCA	-0.145
CAATTGTG	-0.153
AAGTCATT	-0.273
CAATGAGC	-0.0129
TATAAAAA	0.114
AGAGGTAG	-0.215
CGGCGTCC	0.361
CGAGCCCA	-0.139
AGTCGCCC	-0.0585
ACCGCTAC	0.0541
CTCGAGAA	-0.239
AGTAGTTA	0.00027
GTAAAACA	-0.193
AGTCGGAT	0.282
CGCTATGA	0.00533
ATGCTAGG	-0.12
GCTGGTAA	-0.0826
CGGCATCA	0.14
CGTAATGA	-0.0824
ATAAGGAT	-0.161

Sequence	PBM E-score
ACAGCTTA	-0.187
CTTGAAGA	-0.237
ACTATACA	-0.199
CGAGGGTA	-0.0904
TAATATGA	0.0234
TGATCCAA	0.0223
ATTGCGTA	-0.158
AAGTGGCC	-0.0233
AAGTACTA	-0.0986
AATGACGT	-0.119
ATAGCTAT	-0.106
CATCCGCG	0.197
ACTTTGAC	-0.203
ATGAAGCA	-0.15
GATTCCTA	0.0559
ACTAGAAA	-0.106
AACCCAAC	-0.103
TAGTCCCA	-0.284
AGCGCATG	-0.142
CATTAGCG	-0.0197
AGCAGAAA	0.0343
ATGCTCAG	-0.125
AGAGATGA	-0.129
CTCAATAC	-0.0294
GTTCATGA	-0.0154

Sequence	PBM E-score
GGTCAACA	-0.0909
CATTTTGC	0.168
CATCAACC	0.067
AACCAGCG	-0.0114
AGGGATAC	-0.253
GTTGCTGA	-0.0156
CCTTTTCC	0.00074
ACAAACAC	0.0607
GGAGATGA	0.2
AAACGAAC	-0.078
CGCTACCA	0.0112
TACGAGCA	-0.0633
CAACACCA	-0.159
GGTGATGA	0.0127
CTTCATTA	-0.109
AGCTGACG	-0.284
GGACCAAC	0.127
CGACATGA	0.0506
TAGCTTCA	-0.278
CTACTTCC	0.0966
TAGTGATA	-0.399
CGAGGTAC	-0.0988
AAATGGGC	-0.0956
ATATTCTA	-0.0831
CATATGTA	-0.253

Sequence	PBM E-score
GACGTAGC	-0.133
ACGCTACG	-0.126
CTGTCCTC	-0.117
GTCAGGTA	-0.106
ATAGAGCA	-0.246
GTATGTGA	-0.198
CGTAAACA	0.013
TCCCTTCA	-0.271
ACACCCAG	-0.171
AATAAGGG	-0.237
CTATCCAA	-0.171
AACATCGG	0.244
CACATCGG	0.242
GGCACCTA	0.0118
AGCATCTA	-0.163
AGAGAATA	0.101
AAACATTG	-0.18
AGTAATTC	0.205
AGTCGAGC	-0.257
TGTATACA	-0.0606
GTGCATTA	-0.136
GCAGCCTA	-0.268
ATTTAAGC	0.00622
CGAATCCA	-0.0549
TAGTAACA	-0.119

Sequence	PBM E-score
AAATTGTA	-0.0715
ACGAGTTA	-0.0893
CCCCAAGA	-0.175
GCAGCTTA	-0.245
CGCTATTC	0.0769
AATGCCTC	-0.107
CAGCCGTC	-0.0634
ATTGTATG	-0.088
TAATTGCA	-0.0368
ATACCGCC	0.249
ATCTGGCC	0.149
GTCTTGTA	-0.15
GTCTAGAC	-0.328
CCTCCCAC	-0.0054
TAATGGTA	-0.0717
CTTATGCA	-0.227
GTAAGTAC	-0.0225
AGGTTCTC	0.118
CTTCGGCA	0.274
ACCAAATC	-0.0479
AGATTACC	0.0388
CCACCCAC	-0.0738
AGTGAGGC	-0.0279
GCCTGCTA	-0.164
AGCACGAA	-0.00404

Sequence	PBM E-score
TCAAACGA	-0.134
GACATATA	0.0273
CATTTTAC	0.106
ATTCATTC	-0.00171
AGGCCCCT	-0.194
TACTGCGA	-0.164
CACGGACA	0.317
GAGACTTA	-0.198
AGCCATAA	-0.243
AGACATCC	-0.00827
CTCCATGA	-0.0702
AAGCGTAA	-0.0513
AGTCACGA	-0.199
CGTTACTA	-0.109
CCGGAGGC	0.433
CTCTCACA	-0.141
GTGTGCCA	-0.0713
CTGTGAGA	-0.304
AAGCGCTC	-0.0922
ATTCCTAC	-0.0128
AAGTCAAT	-0.113
ATTATCCG	0.393
AAGACCGA	0.277
AGCGCTAT	0.0792
CGTTCTGA	-0.194

Sequence	PBM E-score
GCAGTTCA	-0.0741
AGAACTCG	-0.0727
CAGGTTTC	-0.0498
CCGGGTTA	0.353
CTCATTCC	0.133
ACATACCA	-0.0481
GGTCGGGA	0.268
AACGTTAT	-0.109
ATTGCGGG	0.24
CCGGATCG	0.396
ACGTAACT	-0.264
AGTATTTG	-0.217
GATGACGC	-0.146
AGAGCAAC	-0.322
CGCATGGC	0.187
GAAAGACA	-0.00253
CGGCAATC	0.365
ATATGAAG	-0.0819
CACTAGCC	0.0704
ATGTGCAA	-0.197
CACAAAAA	0.168
AAAGTTAG	-0.109
ATGTCGCC	-0.0784
CATACCAG	-0.202
GCTGGTTA	-0.124

Sequence	PBM E-score
AACAGCTC	-0.15
GCGCCCCA	0.0946
AGGAAATG	-0.156
TAAGTAAA	-0.147
AACCGCCT	0.102
ACGATTAT	0.0283
AGCAGGTG	-0.117
CAGTTGCG	0.0774
AAGCTAAA	-0.139
ACAGTTTG	-0.22
ATTTTGAG	0.0528
CGGTCACC	0.0808
AGCGGGCA	0.0386
ACTGTACG	-0.188
CAAGCCAG	-0.222
AGCCTATC	-0.178
CAAATGGA	-0.0675
CCGTACAA	0.0331
CGAGCCAG	0.096
